# From PubChem BioAssay AID1345082 (National Center for Advancing Translational Sciences (NCATS), 2018)
# About 4,000 (4.3%) of roughly 94,000 compounds were called active. The shares of active, inactive and inconclusive entries below differ from those in the screen. Calls come from the whole dose curve; as a rule, active = well fitted inhibition curve with a large enough effect; inconclusive = small, poorly fitted or top-dose-only effect; inactive = no such curve, though single readings can be large or run the other way. Where the call is inconclusive, the potency comes from a doubtful curve fit.
# Assay: Cytotoxic Profiling in NIH 3T3 Cell Line of Diverse Libraries Using Quantitative High-Throughput Screening; note: nearly all actives have a fitted effect of over 55% in size
# Conditions: NIH 3T3 viability, CellTiter-Glo ATP luminescence, 48-72 h; activity change, negative = cytotoxicity: at 96.7 µM (top of the series) unless noted; series mostly up to 96.7 µM
# Procedure, shortened: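 Cytotoxicity was measured by CellTiter-Glo ATP luminescence after 48 or 72 h compound exposure at 37 °C. Mouse NIH 3T3 fibroblasts were seeded at 400 cells/well and dosed by 23 nL pin transfer.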
# % is set by controls: 0 for no effect and ±100 for the full control effect; potency is the fitted concentration of half-maximal effect; tags give direction and shape of the fitted curve.
Compound,outcome,Potency,"activity change, negative = cytotoxicity"
O=C1OC[C@@H]2CCNCc3ccccc3N12,inactive [at 174 µM],–,–
COc1ccc(-c2nn(-c3ccccc3C)cc2CN(C)Cc2nonc2C)cc1F,–,"inconclusive: 39.8 µM [inhibitor, partial curve]",–
CS(=O)(=O)Nc1ccc(C2(C(=O)NCc3ccc(F)cc3Cl)CCCCC2)cc1,–,"inconclusive: 44.7 µM [inhibitor, partial curve, poor fit]",–
CCn1cc(-c2ccc(Cl)cc2)cc1C(=O)N1CCN(c2ccccn2)CC1,–,"inconclusive: 44.7 µM [inhibitor, partial curve, poor fit]",–
O=C(c1cc(C2CC2)[nH]n1)N1CCOC(Cc2cccc(C(F)(F)F)c2)C1 (configuration not stated),–,"inconclusive: 28.2 µM [inhibitor, partial curve, poor fit]",–
COc1ccccc1CNC(=O)c1cc2c(N3CCCC3)nc(C)cn2n1,–,"inconclusive: 50.1 µM [inhibitor, partial curve, poor fit]",–
CC(C)CCN1CCOc2cc(C(=O)Nc3nccs3)ccc2C1,–,"inconclusive: 79.4 µM [inhibitor, partial curve, poor fit]",–
CCC1Oc2ccc(NC(=O)Cc3ccccc3)cc2CN(Cc2ccccc2)C1=O (configuration not stated),–,"inconclusive: 28.2 µM [inhibitor, partial curve]",–
O=C(NC1CCN(C(=O)c2ccc(-c3cccs3)cc2)CC1)C1CCCC1,–,"inconclusive: 44.7 µM [inhibitor, partial curve, poor fit]",–
CC(C)c1ccc(CC(=O)N2CCCc3ncc(C(=O)NCc4ccccc4)cc32)cc1,–,active: 89.1 µM,–
COc1ccc2nc([C@H]3CCN(Cc4ccc(F)cc4)C3)[nH]c2c1,–,active: 112 µM,–
Cc1ccc(Cn2c(-c3cccc(Cl)c3)nc(C)c(CCO)c2=O)cc1,–,"inconclusive: 50.1 µM [inhibitor, partial curve, poor fit]",–
O=C1c2c(nc(COc3cccnc3)n2Cc2ccccc2)NCCN1CCOc1ccccc1,–,"inconclusive: 50.1 µM [inhibitor, partial curve, poor fit]",–
Cc1cc(C(=O)N[C@@H]2CN(Cc3ccccc3)C[C@H]2CO)c(C)o1,–,"inconclusive: 50.1 µM [inhibitor, partial curve, poor fit]",–
COCCNC(=O)[C@@H]1C[C@@H](O)CN1C1CCN(C(=O)c2ccccc2)CC1,–,–,inactive: -6.39%
CN(Cc1cn(-c2ccccc2)nn1)Cc1cnc2ccccn12,–,"inconclusive: 89.1 µM [inhibitor, partial curve, poor fit]",–
Cn1cc(-c2cnc(Nc3cccnc3)c3c2CCO3)cn1,–,"inconclusive: 89.1 µM [inhibitor, partial curve]",–
Cc1nc(N2CCN(C(=O)Cc3cccs3)CC2)cc(C(F)(F)F)n1,–,–,inactive: -29.1%
CCc1noc(C)c1C(=O)N1CCc2c(nc(-c3ccccn3)[nH]c2=O)C1,–,"inconclusive: 50.1 µM [inhibitor, partial curve, poor fit]",–
CNC(=O)c1cc(C2CC2)nc2onc(C3CCCN3C(=O)Cc3ccccn3)c12 (configuration not stated),–,–,inactive: -15.9%
O=C(Nc1cccc(F)c1)C1CCCN(Cc2cccc(-c3ccc(F)cc3F)c2)C1 (configuration not stated),–,active: 44.7 µM,–
CC1CCN(CC2CCCN(C(=O)c3ccc(F)cc3)CC2)CC1 (configuration not stated),–,–,inactive: -30.7%
N#Cc1ccc(C(=O)N2CCC(n3cc(-c4nc(C5CC5)no4)nn3)C2)cc1 (configuration not stated),–,–,inactive: -24.3%

Compound,outcome,Potency,"activity change, negative = cytotoxicity"
CN(C)CCNC(=O)c1cc2n(n1)CCCN(C(=O)[C@@H]1CCCN1)C2,–,–,inactive: -21.1%
COc1cncc(CN2CCC3(CC2)COCCN3C(=O)OCc2ccccc2)c1,–,–,inactive: -13.1% [at 138 µM]
COc1ccc(C(=O)N2CCC(N3C(=O)C(OC)C34CCOCC4)CC2)c(OC)c1 (configuration not stated),–,–,inactive: -7.23%
Cc1nnc(-c2cc(-c3ccc([S+](C)(=O)[O-])cc3)ccn2)n1CCN1CCOCC1,–,"inconclusive: 89.1 µM [inhibitor, partial curve, poor fit]",–
COc1ccc(-c2ccnc3nc(CC(C)C)nn23)cc1OC,–,"inconclusive: 70.8 µM [inhibitor, single point]",–
COc1ccc2nc(CO[C@H]3CN(Cc4ncccc4C)C[C@H]3F)[nH]c2c1,–,"inconclusive: 44.7 µM [inhibitor, partial curve, poor fit]",–
CCOc1ccccc1NC(=O)N1CCC(N2C(=O)C3(CCCC3)C2c2ccccc2)CC1 (configuration not stated),–,"inconclusive: 44.7 µM [inhibitor, partial curve, poor fit]",–
O=C(NC1CC1)c1cn2cc(-c3ccc(F)cc3)sc2n1,–,"inconclusive: 56.2 µM [inhibitor, partial curve, poor fit]",–
COC[C@@H]1CCCN1c1ncnc2c1CN(C1CCNC1)C(=O)CN2C (some centres not stated),inactive,–,–
CN(C)c1ccc2ncc(Nc3ccccc3F)n2n1,–,"inconclusive: 100 µM [inhibitor, partial curve, poor fit]",–
COC(=O)C1=CN(CC(=O)Nc2ccccc2)S(=O)(=O)N=C1C,inactive,–,–
CCn1c2c(c(=O)n1Cc1ccccc1)CCN(C(=O)c1cnccn1)C2,–,"inconclusive: 89.1 µM [inhibitor, partial curve]",–
N#CC1CCN(C(=O)C2CCCN2Cc2ccc(-c3cncnc3)cc2)CC1 (configuration not stated),–,–,inactive: -7.59%
CC(C)CNC(=O)c1ccc2c(c1)C1(CCCN(CC3CC3)C1)CN2C (configuration not stated),–,–,inactive: -3.84% [at 138 µM]
CN1C(=O)C2(CCN(C(=O)CCc3ccccc3)C2)c2ccccc21 (configuration not stated),–,–,inactive: -4.78%
CCn1cc(CN2CCCCC2c2nc(CCOCC3CCOCC3)no2)cn1 (configuration not stated),–,"inconclusive: 56.2 µM [inhibitor, partial curve, poor fit]",–
Cc1ccc(C)c(CCNC(=O)[C@H]2CNC[C@H](C(=O)N3CCOCC3)C2)c1,–,–,inactive: -17.4%
Cn1nccc1C(=O)N1CC(c2ncc3c(-c4ccc(F)cc4)nccn23)C1,–,"inconclusive: 31.6 µM [inhibitor, partial curve, poor fit]",–
CC(C)NC(=O)NC[C@H]1O[C@@H](CC(=O)NC2CC2)[C@H](O)[C@@H]1O,–,–,inactive: 1.25% [at 174 µM]
Cc1ccc(CN2C(=O)[C@@H]3C[C@@H](O)CN3C3(CN(Cc4ccccc4F)C3)C2=O)o1,–,–,inactive: -11.6% [at 174 µM]
Cc1cc(C)cc(CN2CCCCC23Cc2ccccc2CNC3=O)c1 (configuration not stated),–,"inconclusive: 56.2 µM [inhibitor, partial curve, poor fit]",–
O=C(N[C@H]1CCN2C(=O)N(c3ccc(OC(F)(F)F)cc3)C(=O)[C@@H]2C1)c1ccncc1,–,"inconclusive: 31.6 µM [inhibitor, partial curve, poor fit]",–
CC(=O)c1ccc(NC(=O)O[C@@H]2CO[C@H]3[C@@H]2OC[C@@H]3n2nnnc2SCc2ccco2)cc1,–,–,inactive: 1.8%

Compound,outcome,Potency,"activity change, negative = cytotoxicity"
O=C(N[C@H]1CCN2C(=O)c3ccccc3NC(=O)[C@H]12)c1cccc(F)c1,–,–,inactive: -6.92% [at 138 µM]
Cc1nn(-c2ccc(F)cc2)c(Oc2ccccc2)c1CCC(=O)NCC1CCCO1 (configuration not stated),–,"inconclusive: 44.7 µM [inhibitor, partial curve, poor fit]",–
Cc1noc2nc(C(C)C)cc(C(=O)NC3CCCc4c3[nH]c3c(Cl)cccc43)c12 (configuration not stated),–,"inconclusive: 35.5 µM [inhibitor, partial curve, poor fit]",–
CN1CCN(Cc2nc(C3(O)CCN(Cc4ccccc4C(F)(F)F)CC3)cs2)CC1,–,"inconclusive: 89.1 µM [inhibitor, single point]",–
CCC(=O)N1CCc2sc(C(=O)NC3CCCCCC3)cc2C1,–,"inconclusive: 50.1 µM [inhibitor, single point]",–
O=C(NC1CCN(c2cc(-c3ccccc3)[nH]n2)CC1)c1ccc(F)cc1F,–,"inconclusive: 44.7 µM [inhibitor, partial curve, poor fit]",–
O=C(c1cccnc1CCC1COc2ccccc2O1)N1CCCC1 (configuration not stated),–,"inconclusive: 50.1 µM [inhibitor, partial curve, poor fit]",–
Cc1ccc(SCCNC(=O)C2CCC(=O)N(C3CCCC3)C2)cc1 (configuration not stated),–,–,inactive: -20.9%
O=S(=O)(NCC1CCOCC1)c1ccc(F)cc1F,–,–,inactive: -1.61%
C=CCOc1cccc(-c2nc(C(=O)NCC)cs2)c1,–,"inconclusive: 35.5 µM [inhibitor, partial curve]",–
CSc1ccc(-c2cccc(C(=O)NCCN[S+](=O)([O-])c3c(C)noc3C)c2)cc1,–,"inconclusive: 44.7 µM [inhibitor, partial curve, poor fit]",–
COC(=O)N1CCCC1C(=O)N1CCC(c2ccccc2)CC1 (configuration not stated),–,–,inactive: -19.9% [at 138 µM]
COc1ccc(-c2noc([C@@H]3CCCN3C(=O)c3ccc(OC)cc3C)n2)cc1,–,"inconclusive: 50.1 µM [inhibitor, partial curve, poor fit]",–
O=C(Cc1ccccc1Cl)N[C@H]1CCOC[C@H]1C1CCOCC1,–,–,inactive: 4.72%
O=C(c1ccc2[nH]ccc2c1)N1CCCC(Cc2noc(-c3cnccn3)n2)C1 (configuration not stated),–,–,inactive: -5.06%
CC(=O)c1c(C)nn(CC(=O)N2CCn3nc(Cc4ccccc4)cc3C2)c1C,–,–,inactive: -33.7%
COc1ccc(-c2nn(-c3ccccc3)cc2CN2CCC(C#N)CC2)c(F)c1,–,"inconclusive: 35.5 µM [inhibitor, partial curve, poor fit]",–
O=C(NCC1Cn2cccc2CN1Cc1ccccc1)c1ccc2cc[nH]c2c1 (configuration not stated),–,"inconclusive: 70.8 µM [inhibitor, single point]",–
CC(C)NC(=O)c1cnc2c(c1)N(C(=O)Cc1ccc(C(C)C)cc1)CCC2,–,"inconclusive: 56.2 µM [inhibitor, partial curve, poor fit]",–
O=C(NC1CCCCC1)C1CCCN(c2ccnc3ccnn23)C1 (configuration not stated),–,"inconclusive: 31.6 µM [inhibitor, partial curve]",–
CCOc1ccccc1C1NC(=O)N(CC(=O)Nc2cccc(C(C)C)c2)C2=C1C(=O)OC2 (configuration not stated),–,"inconclusive: 50.1 µM [inhibitor, partial curve, poor fit]",–
